# Earlier results, collected in patent US20060142251A1, “Anti-microbial agents derived from methionine sulfoximine analogues” (priority 2002, published 2006).
# Molecular target: mycobacterial glutamine synthetase (MbGS) (Mycobacterium tuberculosis, UniProt P9WN39)
# Conditions: cited from earlier work
# mycobacterial glutamine synthetase (MbGS), sequence (P9WN39 2-478 limits assumed): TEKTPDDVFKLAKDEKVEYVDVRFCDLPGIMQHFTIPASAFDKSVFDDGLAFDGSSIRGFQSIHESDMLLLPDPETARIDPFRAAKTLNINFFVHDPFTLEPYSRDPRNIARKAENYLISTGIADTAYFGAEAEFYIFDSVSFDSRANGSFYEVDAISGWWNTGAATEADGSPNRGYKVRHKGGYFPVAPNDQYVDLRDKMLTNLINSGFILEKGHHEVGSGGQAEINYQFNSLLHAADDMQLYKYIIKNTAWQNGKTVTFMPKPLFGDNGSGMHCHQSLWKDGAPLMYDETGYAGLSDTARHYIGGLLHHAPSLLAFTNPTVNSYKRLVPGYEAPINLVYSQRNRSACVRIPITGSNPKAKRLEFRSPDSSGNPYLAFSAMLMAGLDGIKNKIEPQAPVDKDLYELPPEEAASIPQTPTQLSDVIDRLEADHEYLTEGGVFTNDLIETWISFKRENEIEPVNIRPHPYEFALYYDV
smiles,measurement,value
"CS(=N)(=O)CC[C@H](N)C(=O)O (stereo partly drawn) [MSO, L-methionine-SR-sulfoximine]",greater sensitivity to MSO of bacterial GS compared with mammalian GS,100 fold
